Experiment [1] deals with T1, human OX40 on cells (human, UniProt P43489 29-277).
T1 sequence (looked up): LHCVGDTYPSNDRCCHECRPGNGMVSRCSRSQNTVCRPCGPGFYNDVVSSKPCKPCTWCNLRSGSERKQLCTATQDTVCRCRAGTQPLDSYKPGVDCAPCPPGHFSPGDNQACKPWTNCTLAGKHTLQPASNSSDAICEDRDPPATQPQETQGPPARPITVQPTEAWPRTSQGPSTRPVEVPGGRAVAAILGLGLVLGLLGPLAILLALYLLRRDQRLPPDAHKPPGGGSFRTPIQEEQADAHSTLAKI
Kind of experiment: cell-based or functional assay.

The next experiment addresses T2, hOX40-FC (human, UniProt P43489 29-216).
T2 construct: range 1-216; Made in HEK293; The stated range 1-216 starts at residue 1, so it holds the signal peptide of the entry; also called human OX40 extracellular region fused to human IgG1-Fc; not shown: human IgG1-Fc, UniProt P01857, residues 104 to 330
T2 sequence (looked up): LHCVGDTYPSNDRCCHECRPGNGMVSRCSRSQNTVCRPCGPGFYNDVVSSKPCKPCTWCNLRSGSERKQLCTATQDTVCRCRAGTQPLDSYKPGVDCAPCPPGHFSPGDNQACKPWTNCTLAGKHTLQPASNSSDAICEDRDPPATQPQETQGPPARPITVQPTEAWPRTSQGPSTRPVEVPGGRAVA
Kind of experiment: BLI (ForteBio), biotinylated antibody on SA sensor, OX40-Fc 50 nM bivalent, 1:1 model. As to the method:
The ForteBio affinity assay was conducted according to the existing conventional method (Estep, P et al., MAbs, 2013, 5(2): 270-8). The brief process is as follows: the sensor was equilibrated offline in an assay buffer (such as PBS) for 20 min and then subjected to online test for 60 s to establish a signal baseline. The purified antibodies obtained as described above were each loaded online onto a corresponding sensor (ForteBio), and finally the ForteBio affinity assay was conducted. The biotinylated candidate antibodies were adsorbed with the SA sensor, and binding and dissociation of hOX40-FC were each detected for about 5 min. The results are shown in Table 4, and N.D indicates not detected in Table 4. Finally, kinetic analysis was performed for all by using a 1:1 binding model.
A general note: In BLI a coated tip is dipped into the sample, and binding shifts an interference pattern.

A further experiment addresses T3, hCD27-FC (human, UniProt P26842 20-191, limits assumed).
T3 construct: not shown: Fc part
T3 sequence (looked up): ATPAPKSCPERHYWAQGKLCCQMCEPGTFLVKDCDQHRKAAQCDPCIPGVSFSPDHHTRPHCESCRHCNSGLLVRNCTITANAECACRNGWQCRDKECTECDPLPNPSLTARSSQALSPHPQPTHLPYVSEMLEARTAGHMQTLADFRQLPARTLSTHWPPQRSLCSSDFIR
Kind of experiment: ELISA, 10 ng antigen coated. As to the method: (§1) 10 ng of mouse OX40-his (mOX40-his), hCD27-FC and hOX40-his were coated overnight at 4° C. by ELISA, washed, and then incubated with antibody-F23-32K and control antibody, and finally labeled for color developing with HRP-labeled secondary antibody.
Background: An ELISA detects its analyte on a solid surface through an enzyme-linked reagent.

For the next experiment, the target named is T4, mouse OX40-his (mouse, UniProt P47741 20-211).
T4 construct: also called mOX40-his; not shown: his tag
T4 sequence (looked up): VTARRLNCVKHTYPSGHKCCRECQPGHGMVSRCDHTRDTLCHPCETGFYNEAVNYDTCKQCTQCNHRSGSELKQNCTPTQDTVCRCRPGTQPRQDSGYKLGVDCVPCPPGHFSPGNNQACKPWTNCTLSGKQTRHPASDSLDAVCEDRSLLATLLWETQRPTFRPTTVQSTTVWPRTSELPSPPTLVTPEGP
Kind of experiment: ELISA, 10 ng antigen coated. Here is the method:
as §1

A further experiment has as its target T5, TIGIT on Jurkat cells (Homo sapiens (Human), UniProt Q495A1 22-244).
T5 construct: also called Jurkat-TIGIT
T5 sequence: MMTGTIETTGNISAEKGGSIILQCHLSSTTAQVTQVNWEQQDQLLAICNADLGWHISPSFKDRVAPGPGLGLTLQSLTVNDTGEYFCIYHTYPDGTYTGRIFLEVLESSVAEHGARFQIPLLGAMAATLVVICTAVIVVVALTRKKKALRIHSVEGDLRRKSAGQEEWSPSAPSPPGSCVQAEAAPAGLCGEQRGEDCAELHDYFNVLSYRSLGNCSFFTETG
Kind of experiment: flow cytometry on Jurkat-TIGIT cells.

Another experiment has as its target T6, hOX40-his (human, UniProt P43489 29-216).
T6 construct: range 1-216; Made in HEK293; The stated range starts at residue 1 (holds the signal peptide of the entry); no cleavage site stated; not shown: his tag
T6 sequence (looked up): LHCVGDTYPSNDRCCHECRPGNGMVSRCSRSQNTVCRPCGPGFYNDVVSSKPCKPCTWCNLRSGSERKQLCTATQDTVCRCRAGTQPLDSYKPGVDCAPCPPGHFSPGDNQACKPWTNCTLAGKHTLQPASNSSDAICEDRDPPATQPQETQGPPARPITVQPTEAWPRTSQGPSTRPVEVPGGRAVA
Kind of experiment: BIACORE, antibody on the probe, 20 nM OX40-his. The text has this: Table 10 illustrates the CDRs of eight full antibodies containing these amino acid mutations, and the rest of the sequences are the same as those of antibody-F23-32K. […] The sequences of the anti-OX40 antibody (antibody M) are shown in Table 12; wherein, the expression cells used for the antibodies above (including antibody M) are CHO-S cells, and the method for preparing the antibody M-KF is as follows: the antibody M was identical to the antibody M-KF in terms of amino acid sequence and was expressed by the CHO cell line in which the fut8 gene was knocked out (the content of fucose in antibody M-KF was about 0%).
In general terms: In SPR one partner is held on a chip, and binding of the other changes the refractive index at the surface.

Another experiment addresses T7, TIM3 on Jurkat cells (Homo sapiens (Human), UniProt Q8TDQ0 22-301).
T7 construct: also called Jurkat-TIM3
T7 sequence: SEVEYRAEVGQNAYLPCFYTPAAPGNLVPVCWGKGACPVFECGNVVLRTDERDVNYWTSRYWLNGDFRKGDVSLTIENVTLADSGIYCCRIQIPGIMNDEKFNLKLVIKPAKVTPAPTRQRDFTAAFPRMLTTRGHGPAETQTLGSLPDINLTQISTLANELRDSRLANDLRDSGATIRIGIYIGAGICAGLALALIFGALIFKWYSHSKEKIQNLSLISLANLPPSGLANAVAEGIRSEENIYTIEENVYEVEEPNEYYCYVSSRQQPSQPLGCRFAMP
Kind of experiment: flow cytometry on Jurkat-TIM3 cells.

The target of another experiment is T8, CTLA4 on Jurkat cells (Homo sapiens (Human), UniProt P16410 36-223).
T8 construct: also called Jurkat-CTLA4
T8 sequence: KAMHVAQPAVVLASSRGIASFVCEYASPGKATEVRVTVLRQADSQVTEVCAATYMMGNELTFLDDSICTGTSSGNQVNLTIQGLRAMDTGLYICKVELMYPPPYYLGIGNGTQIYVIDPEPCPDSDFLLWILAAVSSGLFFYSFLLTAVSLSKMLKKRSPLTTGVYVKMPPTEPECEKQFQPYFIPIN
Kind of experiment: flow cytometry on Jurkat-CTLA4 cells.

A further experiment concerns the target T9, rhesus monkey OX40-his (rhesus monkey).
T9 construct: also called Rh-OX40; Rh-OX40-his
Kind of experiment: BLI (Fortebio), protein A sensor - antibody - OX40-his (100 nM).

Experiment [2] has as its target T1, human OX40 on cells. Kind of experiment: flow cytometry on Jurkat-hOX40 cells, 3-fold dilutions from 50 nM, MFI. As to the method: Antibody-F23-4k and antibody-F23-32k, as well as two control antibodies 11D4 and OX40mAb24 at different concentrations were used to incubate Jurkat-hOX40 cells.

B1: 32k-RY (antibody)
heavy: QVQLEESGGGVVQPGESLRLSCAASGFTFSSYGMHWVRQAPGKGLEWVAVISYDGSNQYYADSVKGRFTISRDNSKNTLYLQMNSLRAEDTAVYYCAKDNQDSSPDVGIDYWGQGTLVTVSS[human IgG1 constant region with E345R S440Y (EU numbers) not shown]
light: DIQMTQSPSSLSASVGDTVTITCRASQNISPFLNWYQQKPGKAPKLLIYAASSLQSGVPSRFSGSGSGTDFTLTISSLQPEDFATYYCQQYNSYPLTFGGGTKVEIKRTVAAPSVFIFPPSDEQLKSGTASVVCLLNNFYPREAKVQWKVDNALQSGNSQESVTEQDSKDSTYSLSSTLTLSKADYEKHKVYACEVTHQGLSSPVTKSFNRGEC
Regarding B1, the “NFκB reporter in Jurkat-hOX40-NFκB cells, fold against wild-type antibody, without protein A” value in the experiment with human OX40 on cells [1] was roughly 10 fold.

B2: Antibody-F23-32k (antibody, human IgG1, kappa)
heavy: QVQLEESGGGVVQPGESLRLSCAASGFTFSSYGMHWVRQAPGKGLEWVAVISYDGSNQYYADSVKGRFTISRDNSKNTLYLQMNSLRAEDTAVYYCAKDNQDSSPDVGIDYWGQGTLVTVSS[human IgG1 constant region not shown]
light: DIQMTQSPSSLSASVGDTVTITCRASQNISPFLNWYQQKPGKAPKLLIYAASSLQSGVPSRFSGSGSGTDFTLTISSLQPEDFATYYCQQYNSYPLTFGGGTKVEIKRTVAAPSVFIFPPSDEQLKSGTASVVCLLNNFYPREAKVQWKVDNALQSGNSQESVTEQDSKDSTYSLSSTLTLSKADYEKHKVYACEVTHQGLSSPVTKSFNRGEC
notes: also called antibody No. 6
Turning to B2, the results for the Kd with hOX40-FC, with hOX40-his and in the experiment with rhesus monkey OX40-his were 0.4 nM, 11.5 nM and 9 nM, respectively. In addition, the binding result with hCD27-FC is reported as “no binding”; with mouse OX40-his, “no binding”; in the experiment with TIGIT on Jurkat cells, “no binding (tested: 100 nM)”; with TIM3 on Jurkat cells, “no binding (tested: 100 nM)”; with CTLA4 on Jurkat cells it was “no binding (tested: 100 nM)”. In the experiment with hOX40-his, the off-rate (koff) is 0.00965 s⁻¹. Moreover, in the experiment with hOX40-his, the kon stood at 841000 M⁻¹ s⁻¹. This molecule registered a concentration giving a half-maximal response (EC50) in the experiment with human OX40 on cells [2] of 1 nM.

B3: 32k-R (antibody, human IgG1, kappa)
heavy: QVQLEESGGGVVQPGESLRLSCAASGFTFSSYGMHWVRQAPGKGLEWVAVISYDGSNQYYADSVKGRFTISRDNSKNTLYLQMNSLRAEDTAVYYCAKDNQDSSPDVGIDYWGQGTLVTVSS[human IgG1 constant region with E345R (EU numbers) not shown]
light: DIQMTQSPSSLSASVGDTVTITCRASQNISPFLNWYQQKPGKAPKLLIYAASSLQSGVPSRFSGSGSGTDFTLTISSLQPEDFATYYCQQYNSYPLTFGGGTKVEIKRTVAAPSVFIFPPSDEQLKSGTASVVCLLNNFYPREAKVQWKVDNALQSGNSQESVTEQDSKDSTYSLSSTLTLSKADYEKHKVYACEVTHQGLSSPVTKSFNRGEC
As to B3, the “NFκB reporter in Jurkat-hOX40-NFκB cells, fold against wild-type antibody, without protein A” value with human OX40 on cells [1] is roughly 10 fold.

As a reminder, the koff is the first-order rate constant of dissociation. One may read the kon as the second-order rate constant of association. Usually EC50 stands for the midpoint of the concentration-response curve.

Values taken from US20230139700A1 (BIO THERA SOLUTIONS, published 2023).
